{"source": "the supplement of paper PMC11417369", "note": "± gives the standard deviation of the averaged measurements. The list shows a part of the results.", "data": [{"tested_on": "PfAP2-G AP2 domain (GST-tagged)", "experiment": "gcPBM binding intensity (ln(normalized median fluorescence intensity)); higher = stronger DNA binding", "summary_of_the_method": "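Binding intensity is the highest Masliner-normalised natural-log median intensity over replicate spots in either probe orientation. To obtain it, GST-tagged P. falciparum DNA-binding domains made in E. coli were incubated for 1 h on an Agilent 4 × 180k array of primer-extended double-stranded 36-bp intergenic genomic probes plus negative controls. Detection used Alexa488 anti-GST antibody with scanning at 488 nm.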", "values": [{"sequence": "ATCTTAATTTTTGAAGGTACACACTAATATATTAAA [XGTACX_site2292]", "gcPBM binding intensity (ln)": "11.1 ± 0.76"}, {"sequence": "ATATTTTATTATATAGGTACACATAATTTCATGTAA [XGTACX_site415]", "gcPBM binding intensity (ln)": "11.2 ± 0.65"}, {"sequence": "TATATAGTAAATATTTGTACATAATAAAATATATGT [XGTACX_site7873]", "gcPBM binding intensity (ln)": "10.8 ± 0.48"}, {"sequence": "TATAATATAAAAATGAGTACATAGATAATAATATTT [XGTACX_site2376]", "gcPBM binding intensity (ln)": "11.3 ± 0.74"}, {"sequence": "TTTTTTTTTTATTAATGTACAAGATATATAATGTTA [XGTACX_site4809]", "gcPBM binding intensity (ln)": "10.8 ± 0.65"}, {"sequence": "AAAATTTAATATAATGCACACATAAAACAAAAACAA [CACACA_site8071]", "gcPBM binding intensity (ln)": "10.3 ± 0.23"}, {"sequence": "AAATGTAGAAAAAGTTGTACACTGTTTCAAAAATAA [XGTACX_site1063]", "gcPBM binding intensity (ln)": "11.6 ± 0.97"}, {"sequence": "AATGATACACATATATGTACATATATATATATATAT [XGTACX_site5391]", "gcPBM binding intensity (ln)": "11.2 ± 0.49"}, {"sequence": "TGCAATATATCAAAGTGTACATGCAATAAAAAAAAA [XGTACX_site652]", "gcPBM binding intensity (ln)": "11.1 ± 0.71"}, {"sequence": "ATATGGATTATACATACATGCATACATACATACATA [TGCATGCA_site475]", "gcPBM binding intensity (ln)": "10.2 ± 0.23"}, {"sequence": "TATATACATATATGCACACAAAAAAATATATATTTT [CACACA_site1729]", "gcPBM binding intensity (ln)": "10.1 ± 0.13"}, {"sequence": "ATAATTAAAATTAAATGTACTTTTTTATATATTTTT [XGTACX_site2209]", "gcPBM binding intensity (ln)": "11.4 ± 1"}, {"sequence": "AATTTCTTTTTCGATATACACACTGTATGTGTCTAA [CACACA_site3975]", "gcPBM binding intensity (ln)": "10.01 ± 0.028"}, {"sequence": "TTTAAAGTTTTATACACACACCAAAGTTATTCTAAT [CACACA_site6432]", "gcPBM binding intensity (ln)": "9.99 ± 0.014"}, {"sequence": "CAATGAAAAATAATGAGTACATAGTTAATAAAGATA [XGTACX_site72]", "gcPBM binding intensity (ln)": "11.3 ± 0.54"}, {"sequence": "TAATATATATATATGGTGCATTTAATTTATATATAA", "gcPBM binding intensity (ln)": "9.97 ± 0.33"}, {"sequence": "TATGAAATTTTAATTACACACAGGAAAATAAAATGT [CACACA_site8430]", "gcPBM binding intensity (ln)": "10.1 ± 0.18"}, {"sequence": "GCCCACACGAACCATGCATGCCACGATATAAACCAC [TGCATGCA_site322]", "gcPBM binding intensity (ln)": "10.3 ± 0.26"}, {"sequence": "TTTTTTACAGAAAAATATTAAAATTATAAATGTGAA [GTGCAC_negctrl_site451]", "gcPBM binding intensity (ln)": "9.88 ± 0.16"}, {"sequence": "TTATTTTTCTTTATTGGTACACACGAAAAAAAAATT [XGTACX_site6482]", "gcPBM binding intensity (ln)": "11.1 ± 0.76"}, {"sequence": "TTATAATATATATAAAAGAAAAAAAATTATAATATA [CACACA_negctrl_site90]", "gcPBM binding intensity (ln)": "9.61 ± 0.2"}, {"sequence": "AAAAAAAAAAAAAGCTGTACAATTAAAGACAAACCT [XGTACX_site8610]", "gcPBM binding intensity (ln)": "11.1 ± 0.79"}, {"sequence": "CTTTAACCATATATGTGTACGTATTTTATTCATATT [XGTACX_site6212]", "gcPBM binding intensity (ln)": "11.8 ± 1.1"}, {"sequence": "ATATATATTTTTAATTGTACAGAATTAAAAATATTG [XGTACX_site1967]", "gcPBM binding intensity (ln)": "10.8 ± 0.54"}, {"sequence": "AAGAAGTGGAAAATATACTCCACATATATATATGTG [CACACA_negctrl_site304]", "gcPBM binding intensity (ln)": "10.4 ± 0.2"}, {"sequence": "AAAAAACAATTTGTGTGTACACATGATACGTTCGAT [XGTACX_site4112]", "gcPBM binding intensity (ln)": "11.6 ± 0.89"}, {"sequence": "ATATATATATAATGTTGTACATAAATATTATATTTA [XGTACX_site5225]", "gcPBM binding intensity (ln)": "11.2 ± 0.7"}, {"sequence": "TTTTTATTTATTCTCTTTGTATTATAAAATAAAAGC [XGTACX_negctrl_site253]", "gcPBM binding intensity (ln)": "10.07 ± 0.064"}, {"sequence": "ACATGTGAATTTTAGGTGCACTTGTAATTTAACATT", "gcPBM binding intensity (ln)": "10.3 ± 0.23"}, {"sequence": "GGAAAAATATAATATGCATGTTATTATTTTTTTATA [TGCATGCA_site836]", "gcPBM binding intensity (ln)": "9.43 ± 0.24"}, {"sequence": "TTCTTCTGTTTTATTACACACCATTTTGTGTATACA [CACACA_site7059]", "gcPBM binding intensity (ln)": "10.4 ± 0.23"}, {"sequence": "TCTTAATCGTATTATTACTATAATTATATAATATTT [CACACA_negctrl_site1594]", "gcPBM binding intensity (ln)": "9.945 ± 0.078"}, {"sequence": "TATGTATATACATAAACATGCAAAAACAATATCTTA [TGCATGCA_site950]", "gcPBM binding intensity (ln)": "9.85 ± 0.014"}, {"sequence": "TATTTATTTATTTAATGTACAAAAGAACAAGAATTT [XGTACX_site2248]", "gcPBM binding intensity (ln)": "10.9 ± 0.56"}, {"sequence": "GATCTAAAAACAAGGTGTACAAGAAAAAAAAAAAAA [XGTACX_site7577]", "gcPBM binding intensity (ln)": "11.3 ± 0.89"}, {"sequence": "ACAAAAGGGGAATACACACACATATATATATATATA [CACACA_site2215]", "gcPBM binding intensity (ln)": "10.2 ± 0.34"}, {"sequence": "ATATATATATTATATAGTACAGAGTATACTATTATA [XGTACX_site1893]", "gcPBM binding intensity (ln)": "11 ± 0.79"}, {"sequence": "AACGATATATGTACTACACACATTATGTCATCCTAT [CACACA_site2464]", "gcPBM binding intensity (ln)": "11.5 ± 0.83"}, {"sequence": "CAAAAAGGAATGTATGCACACAATTGATTTTAACTC [CACACA_site1468]", "gcPBM binding intensity (ln)": "10 ± 0.13"}, {"sequence": "TAAAACAATATAAAATGTACAGAATTTTTTTTTCTT [XGTACX_site6820]", "gcPBM binding intensity (ln)": "10.7 ± 0.4"}, {"sequence": "CATAAATAATATATTTGTACGAATAAAATTTGTTCA [XGTACX_site3445]", "gcPBM binding intensity (ln)": "10.8 ± 0.45"}, {"sequence": "AACTGATTATTTTTTTGTACATATATAATAATATAT [XGTACX_site5953]", "gcPBM binding intensity (ln)": "10.9 ± 0.47"}, {"sequence": "TTCTTTTATGATAATTGTACCCTTTTTAAAAAGAAA [XGTACX_site7815]", "gcPBM binding intensity (ln)": "11.5 ± 0.95"}, {"sequence": "ATAATGAAAAGAAAGGGTACAAAAAAAAAAAAAAAT [XGTACX_site3350]", "gcPBM binding intensity (ln)": "11.2 ± 0.92"}, {"sequence": "TTTTTTTTCAATGGCACACATTTTAGATTTATGCTT [CACACA_site4735]", "gcPBM binding intensity (ln)": "10.1 ± 0.18"}]}]}
